Data reported in article PMC4336329 (PLoS ONE, 2015).
Screen size: about 310,000 compounds; about 14,000 (4.5%) showed an effect of 50% or more. The effect is printed as a negative number. The list shows a part of the results.

target: human ether-à-go-go-related gene (hERG) potassium channel (human, UniProt Q12809); experiment: primary screen, population patch clamp on CHO cells stably expressing hERG
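Further: peak tail current of the secondary pulse compared with the same well before compound.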

Chain of human ether-à-go-go-related gene (hERG) potassium channel (Q12809 whole entry, looked up): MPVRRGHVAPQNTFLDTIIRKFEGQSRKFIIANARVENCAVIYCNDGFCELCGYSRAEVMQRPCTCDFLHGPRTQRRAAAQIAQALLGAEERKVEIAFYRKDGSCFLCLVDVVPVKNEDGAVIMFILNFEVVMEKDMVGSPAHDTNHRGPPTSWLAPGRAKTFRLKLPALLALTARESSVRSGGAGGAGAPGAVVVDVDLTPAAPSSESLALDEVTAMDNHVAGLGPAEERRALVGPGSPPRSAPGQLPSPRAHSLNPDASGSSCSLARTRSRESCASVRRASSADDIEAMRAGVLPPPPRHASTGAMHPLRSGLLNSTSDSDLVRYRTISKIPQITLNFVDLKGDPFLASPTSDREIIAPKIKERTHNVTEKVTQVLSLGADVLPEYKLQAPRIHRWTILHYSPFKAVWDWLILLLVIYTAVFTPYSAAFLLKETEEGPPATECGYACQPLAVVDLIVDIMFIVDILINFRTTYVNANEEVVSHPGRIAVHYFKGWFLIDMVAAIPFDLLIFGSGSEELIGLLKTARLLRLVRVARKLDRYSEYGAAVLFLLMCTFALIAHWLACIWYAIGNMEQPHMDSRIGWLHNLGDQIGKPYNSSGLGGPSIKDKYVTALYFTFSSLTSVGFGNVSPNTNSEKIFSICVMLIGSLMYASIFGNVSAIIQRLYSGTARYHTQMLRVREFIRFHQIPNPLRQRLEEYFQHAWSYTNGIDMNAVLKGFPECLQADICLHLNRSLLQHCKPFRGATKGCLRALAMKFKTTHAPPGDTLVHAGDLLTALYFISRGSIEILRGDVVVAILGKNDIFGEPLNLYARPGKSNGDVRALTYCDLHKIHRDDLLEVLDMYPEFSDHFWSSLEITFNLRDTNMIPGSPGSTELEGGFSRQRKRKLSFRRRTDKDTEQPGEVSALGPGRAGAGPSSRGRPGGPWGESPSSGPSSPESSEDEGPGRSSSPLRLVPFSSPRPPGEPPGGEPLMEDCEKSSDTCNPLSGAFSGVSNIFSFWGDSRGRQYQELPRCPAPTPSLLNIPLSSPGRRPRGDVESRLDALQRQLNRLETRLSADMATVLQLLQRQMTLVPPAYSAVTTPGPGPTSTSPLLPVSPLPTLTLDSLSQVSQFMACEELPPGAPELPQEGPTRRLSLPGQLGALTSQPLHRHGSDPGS

Row | Structure (SMILES) | hERG current change (%, negative = inhibition) at 10uM
1 | CCOC(=O)C1CCCN(c2cc(C)nc3cc(-c4ccc(F)cc4)nn23)C1 (stereo not shown) | -44.2%
2 | CC(=O)Nc1c(-c2ccc3ccccc3c2)nc2ccccn12 | -5.15%
3 | COc1ccc(C(=O)Nc2ccc3c(c2)CCCN3C(=O)c2cccs2)c(OC)c1 | -5.24%
4 | COc1ccc(-n2c(-c3ccccc3)nnc2-c2ccc(Cl)cc2)cc1 | 4.96%
5 | COc1ccc(C(=O)NNC(=O)COc2ccc(Cl)cc2C)cc1S(=O)(=O)N1CCOCC1 | -77.1%
6 | COc1ccc(-n2ncc3c(NCc4cccnc4)ncnc32)cc1 | -48.1%
7 | O=C(CCn1nnc2ccccc21)N1CCC(O)(c2cccc(F)c2)CC1 | 4.12%
8 | O=C(NC1=NCCS1)c1ccc(Cl)c(S(=O)(=O)N2CCOCC2)c1 | 25.6%
9 | O=C(C1CCCN(S(=O)(=O)c2cccc3nsnc23)C1)N1CC=C(c2ccccc2)CC1 (stereo not shown) | -34.2%
10 | Cc1ccc(S(=O)(=O)N(C)C)cc1NC(=O)c1ccncc1 | 4.33%
11 | CC1(O)c2ccccc2C(=O)N1CCc1ccccc1F (stereo not shown) | -23.8%
12 | OCc1cc(C(O)CNCCCCCCOCCCCc2ccccc2)ccc1O (stereo not shown) | -57.9%
13 | COc1cccc(OC)c1CN(C)C(=O)c1cnccc1C(F)(F)F | 7.47%
14 | CCc1c(C)nc2ncnn2c1Nc1ccccc1C | -34.1%
15 | CCN(CC)c1ccc(/C=N/NC(=O)c2ccoc2C)cc1 | -22.5%
16 | CONc1nc(NC(C)(C)C)nc(OCC#N)n1 | 2.07%
17 | Cc1ccc(S(=O)(=O)N2CCN(C(=O)COc3ccc(C)nc3[N+](=O)[O-])CC2)c(C)c1 | -61%
18 | Cc1ccc(N(CC(=O)NC2CCCC2)C(=O)c2c(C)noc2C)cc1C | 8.81%
19 | O=C(COc1ccc2ccccc2c1Br)N1CCOCC1 | -18.4%
20 | Cc1ccc(NC(=O)c2cccc(C(F)(F)F)c2)cc1NC(=O)c1[nH]cnc1C(N)=O | -1.07%
21 | CCOCCCNC(=O)C1CCN(S(=O)(=O)c2ccc3nc4c(c(C(=O)O)c3c2)CCCCC4)CC1 | 49.4%
22 | CCN(c1cccc(C)c1)S(=O)(=O)c1cccc(C(=O)O)c1 | 15.8%

Row | Structure (SMILES) | hERG current change (%, negative = inhibition) at 10uM
23 | O=C(N1CCNCC1)N1CCOCC1 | 3.65%
24 | CC(=O)NC1CC2CCCC(C1)N2C(=O)Nc1ccccc1 (stereo not shown) | 9.57%
25 | CCN=C1NN=C(c2c[nH]c3ccccc23)CS1 | -6.81%
26 | CC(=O)Nc1ccccc1OCC(=O)c1ccc2c(c1)OCO2 | -6.76%
27 | O=C(O)C(=O)O.OC(CNC1CCCc2ccccc21)COc1ccc2ccccc2c1 (stereo not shown) | -72.3%
28 | CCOC(=O)c1nc(NCc2ccccc2)sc1C | 10.1%
29 | CN(C)C(=O)c1ccc(NC(=O)COC(=O)/C=C/c2cccs2)cc1 | 10.3%
30 | Cc1cc(N2CCN(C)CC2)nc2ccc(NC(=O)CCC(=O)NCc3ccco3)cc12 | 7.05%
31 | Cc1nc2ccccc2c(=O)n1NC(=O)/C=C/c1ccc(Br)cc1 | -1.3%
32 | COc1ccc(NC(=O)c2cc3c([nH]c4ccccc43)c(C)n2)cc1 | 19.3%
33 | Cc1nn(C)c(C)c1CNC(=O)c1cnn2c1NC(c1ccccc1)CC2C(F)(F)F (stereo not shown) | -8.44%
34 | CC(C)(C)OC(=O)N[C@@H](Cc1ccccc1)C(=O)NCC1CCC(C(=O)N[C@@H](CCC(N)=O)C(=O)O)CC1 (stereo partly shown) | 16.6%
35 | COc1cc(S(=O)(=O)N2CCOCC2)ccc1NC(=O)COC(=O)c1ccccn1 | -3.21%
36 | CCCOc1ccc(-c2nnn(CC(=O)OCC)n2)cc1 | 3.17%
37 | COc1cccc(/C=N\NC(=O)c2ccc(Cn3cc(Br)c([N+](=O)[O-])n3)o2)c1O | 6.21%
38 | Cc1c(Cl)c([N+](=O)[O-])nn1Cc1ccc(C(=O)N/N=C\c2ccccn2)o1 | -39.5%
39 | Cc1ccc(CCNC(=O)C23C[C@H]4C[C@@H](C2)CC(n2nnc(C)n2)(C4)C3)cc1 | -6.79%
40 | COc1ccc(S(=O)(=O)N(CC(=O)Nc2ccc(S(=O)(=O)N3CCOCC3)cc2)Cc2ccc(F)cc2)cc1 | 9.02%
41 | COc1ccc(OCCCC(=O)OC(C)C(=O)Nc2cccc(C(C)=O)c2)cc1 (stereo not shown) | -14.3%
42 | CC(C)Oc1ccc(CNC(=O)Oc2ccccc2)cc1 | 8.19%
43 | O=C(COc1cc2oc(=O)c3c(c2cc1Cl)CCC3)NCc1ccccn1 | 7.07%
44 | N#Cc1cccc(NC(=O)COC(=O)CCc2ccc(S(=O)(=O)N3CCOCC3)cc2)c1 | -60.1%

Row | Structure (SMILES) | hERG current change (%, negative = inhibition) at 10uM
45 | CNC(=S)NNc1nncc2ccccc12 | 10.7%
46 | COCCn1cnc2c1c(=O)n(CC(=O)OCC#N)c(=O)n2Cc1ccccc1 | 5.42%
47 | CCCNC(=O)COC(=O)c1ccccc1OCc1ccc(Cl)cc1 | -0.354%
48 | Cc1ccc(NS(=O)(=O)c2cccc(C(=O)N3CCN(C(=O)c4ccco4)CC3)c2)cc1 | -36.8%
49 | O=C(C1=NN(c2ccccc2)C2C(=O)N(c3ccccc3)C(=O)C12)c1ccccc1 (stereo not shown) | -7.76%
50 | CCOc1ccc(N(C(=O)c2snc(C(N)=O)c2N)C(C)C(=O)NC2CCCCC2)cc1 (stereo not shown) | -26%
51 | COc1ccc(OC)c(N2C(=O)C(Cl)=C(N3CCOCC3)C2=O)c1 | -1.47%
52 | Cc1nnc(NC(=O)CCC(=O)N2CCC(C)CC2)s1 | 15.8%
53 | COc1ccc2nc(SCC(=O)NCCc3ccccc3)[nH]c2c1 | -21.6%
54 | COc1cccc(-n2nc(-c3ccnn3-c3ccc(C)cc3)c(=O)n(C)c2=O)c1 | -2.93%
55 | CCSc1nnc(NC(=O)[C@@H](NC(=O)c2ccc(C(C)(C)C)cc2)C(C)C)s1 | 2.01%
56 | O=C(CN1CCOc2ccccc21)NCc1ccccc1 | 0.805%
57 | O=C1CC(c2ccccc2)Sc2nc3ccccc3n21 (stereo not shown) | 8.11%
58 | COc1ccc(C(C)=O)cc1COC(=O)CCNS(=O)(=O)c1ccc(C)c(C)c1 | -38.3%
59 | COc1cccc(CNC(=O)CCNS(=O)(=O)c2ccc3c(c2)CC(C)N3C(C)=O)c1 (stereo not shown) | 13.8%
60 | Cc1cccc(CSc2nc3c(c(-c4cccs4)c2C#N)CN(C)CC3)c1 | -13.1%
61 | Oc1ccc(C2C[C@H]3CC[C@@H]2C3)cc1O (stereo partly shown) | 4.19%
62 | CC(=O)N1C[C@H](O)C[C@H]1C(=O)O | -31.6%
63 | Cc1ccsc1C(=O)C1CCCN(Cc2cnn(C(C)C)c2)C1 (stereo not shown) | -56.4%
64 | O=c1c2ccccc2nc(-c2ccco2)n1-c1ccccc1 | -5.2%
65 | CC1CCN(c2c(NCc3ccc(C(=O)NCc4ccccc4)cc3)c(=O)c2=O)CC1 | 24%
66 | COc1ccc(-n2cc(-c3ccc(OC(F)F)cc3)[n+]3c2CCCCC3)cc1.[Br-] | -76.3%

Row | Structure (SMILES) | hERG current change (%, negative = inhibition) at 10uM
67 | COc1cc(/C=C(\C#N)C(=O)N2CCCCC2)ccc1O | 3.57%
68 | COc1ccc(CC(=O)NNC(=O)COc2ccc(Br)cc2C)cc1OC | -8.07%
69 | CC1(c2ccccc2)NC(=O)N(CC(=O)Nc2ccccc2N2CCCCC2)C1=O (stereo not shown) | -13.6%
70 | COc1ccc(Nc2nc(NCC3CCCO3)c3ccccc3n2)c(OC)c1.Cl (stereo not shown) | -71.7%
71 | O=S(=O)(c1ccc(S(=O)(=O)N(Cc2ccccc2)Cc2ccco2)cc1)N1CCCC1 | -6.27%
72 | Cc1cc(C)nc(N/N=C/c2ccc(N3CCOCC3)cc2)n1 | -8.51%
73 | Cc1nn(C(=O)c2c([N+](=O)[O-])cnn2C)c(C)c1Cl | 16.9%
74 | Nc1cccc(C(=O)N/N=C/c2ccsc2)c1 | 1.65%
75 | C=CCn1c(SCC(=O)NCc2ccco2)nnc1-c1ccc2ccccc2n1 | -28.2%
76 | Cc1ccc(CCP(=O)(O)CN2CCOCC2)cn1 | 4.84%
77 | O=C(CN(CC1CCCO1)C(=O)Cn1nnc(-c2ccc(F)cc2)n1)NC1CCCCC1 (stereo not shown) | -21.6%
78 | Cc1cc(C)n2c(-c3ccccc3Cl)nnc2n1 | -14.8%
79 | COc1ccc2[nH]c(=O)c(CN(CCc3ccccc3)Cc3nnnn3CC3CCCO3)cc2c1 (stereo not shown) | -53.4%
80 | O=C(c1ccccn1)N1N=C2/C(=C/c3ccccc3)CCCC2C1c1ccccc1 (stereo not shown) | -37.1%
81 | CCc1nnc(NS(=O)(=O)c2ccc(NC(=O)c3cccc([N+](=O)[O-])c3)cc2)s1 | 30.5%
82 | CCN(c1ccccc1)S(=O)(=O)c1cccc(C(=O)NCC(c2cccs2)N2CCOCC2)c1 (stereo not shown) | -18.7%
83 | CCC(=O)c1ccc(OCC(=O)OCC(=O)c2cc(C)n(C)c2C)cc1 | 28.5%
84 | CC(/C=C/c1ccc(N(C)C)cc1)=N\N=C1\NC(=O)CC(C(=O)Nc2ccccc2)S1 (stereo not shown) | 0.489%
85 | O=C(CSc1ncnc2c1cnn2-c1ccccc1)NC1CCCC1 | -11.6%
